Laboratory results as given in PubChem BioAssay AID485364 (National Center for Advancing Translational Sciences (NCATS), 2010).
Out of some 360,000 compounds screened, about 11,000 (3.1%) were called active. Inconclusive results, whose numbers are uncertain, are shown with a selection of clear calls. Calls follow the shape of the dose curve; as a rule, active = well fitted inhibition curve with a large enough effect; inconclusive = small, poorly fitted or top-dose-only effect; inactive = no such curve, though single readings can be large or run the other way. Potencies of inconclusive entries are left out as doubtful fits.

biological target: Schistosoma mansoni thioredoxin glutathione reductase (TGR) (UniProt Q962Y6); test: qHTS Assay for the Inhibitors of Schistosoma Mansoni Peroxiredoxins; settings: purified TGR, DTNB reduction, TNB absorbance 405 nm; activity change, negative = inhibition: at 114 µM (top of the series) unless noted; also: nearly all actives have a fitted effect of over 60% in size
Procedure, shortened: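 First, TGR (20 nM dispensed) and NADPH were mixed with compound. Second, a 15 min room-temperature incubation followed. Third, further NADPH and then DTNB were added to start the reaction. Finally, TNB absorbance was monitored kinetically.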
% is scaled to controls: 0 for no effect and ±100 for the full control effect; potency is read from the fitted curve at half-maximal effect; tags tell the direction and shape of the fitted curve.

| SMILES | Potency | activity change, negative = inhibition |
| --- | --- | --- |
| COc1ccc(C2c3cc(OC)c(OC)cc3CCN2C2CC(=O)N(c3ccccc3)C2=O)cc1OC (stereo unspecified) | inconclusive [inhibitor, partial curve] |  |
| COc1cc(C(C#N)N2CCOCC2)ccc1O (stereo unspecified) | inconclusive [inhibitor, partial curve] |  |
| O=C(CCN1CCc2ccccc21)c1ccc2c(c1)OCCO2 | inconclusive [inhibitor, full curve] |  |
| Cc1ccc(S(=O)(=O)c2c(Nc3cc(F)ccc3F)sc(C(=O)c3ccc(F)cc3)c2N)cc1 |  | inactive: -7.03% |
| COc1cc(C(C(=O)NCC2CCCO2)N(C(=O)Cn2nnc3ccccc32)c2ccc(C(C)=O)cc2)ccc1O (stereo unspecified) | inconclusive [inhibitor, partial curve] |  |
| COc1ccccc1OCc1nnc(SCC(N)=O)n1-c1ccccc1 | inconclusive [inhibitor, single point] |  |
| CC(=O)c1cccc(OCC(O)CNCC2CCCCC2)c1 (stereo unspecified) | inconclusive [inhibitor, partial curve] |  |
| CCOC(=O)C1CCN(C2CCN(Cc3nc(-c4ccccc4)no3)CC2)CC1 |  | inactive: -9.7% |
| Cc1ccc(-n2nc(C)c(NC(=O)CCl)c2C)cc1C | active: 22.4 µM |  |
| CC(C)c1cccc(C(C)C)c1NC(=O)CCl | inconclusive [inhibitor, partial curve] |  |
| CCCOc1ccc(C(=O)N(Cc2ccc(N(C)C)cc2)CC2CCCO2)cc1 (stereo unspecified) | inconclusive [inhibitor, single point] |  |
| COc1cc(C(CCN2CCCCC2)c2c(OC)cc(OC)c3c(-c4ccccc4)cc(=O)oc23)cc(OC)c1OC (stereo unspecified) | active: 44.7 µM |  |
| Cc1ccc(-c2nonc2NC(=O)c2ccc(F)cc2)cc1C |  | inactive: -1.18% |
| COc1ccccc1CNC(=O)c1ccc2c(=O)n3c(nc2c1)CCCCC3 |  | inactive: 5.31% |
| COc1cccc(CSc2nnc(-c3ccco3)n2C)c1 | active: 39.8 µM |  |
| O=C(N/N=C/c1c(O)ccc2ccccc12)c1cccnc1 | inconclusive [inhibitor, partial curve] |  |
| COc1ccc(-c2cc(=Nc3c(C)n(C)n(-c4ccccc4)c3=O)c3ccccc3o2)cc1 | inconclusive [inhibitor, full curve] |  |
| O=C(COc1ccccc1)NCC(=O)Nc1ccc(S(=O)(=O)NCc2ccco2)cc1 | inconclusive [inhibitor, partial curve] |  |
| Cc1ccc2c(c1)-c1c(cnn1CC(=O)NC(C)CCc1ccco1)CO2 (stereo unspecified) | inconclusive [inhibitor, partial curve] |  |
| Fc1ccc(CSc2nnc(-c3cnccn3)n2Cc2ccco2)cc1 | inconclusive [inhibitor, partial curve] |  |
| COc1ccc2nc(NC(=O)c3nc(S(=O)(=O)Cc4cccc(C)c4)ncc3Cl)sc2c1 | inconclusive [inhibitor, partial curve, poor fit] |  |
| CCCCCNC(=O)C1CC(=O)OC12CCCCC2 (stereo unspecified) |  | inactive: 0% |
| COc1ccc(N2C(=O)CC(N(CCc3ccccc3)C(=O)/C=C/C(=O)O)C2=O)cc1 (stereo unspecified) | inconclusive [inhibitor, partial curve] |  |
| Nc1c(C(=O)NCc2ccco2)c2nc3ccccc3nc2n1Cc1ccc(F)cc1 | active: 11.2 µM |  |

| SMILES | Potency | activity change, negative = inhibition |
| --- | --- | --- |
| Cc1ccc(-c2cc(C(=O)Oc3ccccc3)c3cc(C)ccc3n2)cc1 |  | inactive: -0.992% |
| CC(C)(O)/C=C1/Oc2ccccc2C1N1CCCCC1 (stereo unspecified) | active: 35.5 µM |  |
| Cc1ccc(NC(=O)CSc2nc(-c3ccco3)nc3cc(=O)[nH]n23)cc1C | active: 22.4 µM |  |
| O=C(CNC(=O)C1CCCCC1)NCc1ccco1 | inconclusive [inhibitor, partial curve, poor fit] |  |
| CN(Cc1cn(C)nc1-c1ccccc1F)CC1CCN(Cc2ccccc2)CC1 | inconclusive [inhibitor, partial curve] |  |
| CC(C)(C)OC(=O)N[C@@H](COCc1ccccc1)C(=O)N[C@@H](CO)[C@H](O)[C@@H]1C[C@@H]1C(=O)NC1CCCCC1 |  | inactive: 0.0707% |
| CCC(C)(C)n1nnnc1C(c1cc(OC)c(OC)c(OC)c1)N1CCN(c2ccccc2)CC1 (stereo unspecified) |  | inactive: 35.7% |
| O=C(CSc1ccccc1)Nc1ccc(N2CCN(c3ccccc3)CC2)c(F)c1 |  | inactive: 2.71% |
| CC(=O)Nc1sc(C)c(C)c1CN1CCN(Cc2ccccc2)CC1 | inconclusive [inhibitor, partial curve] |  |
| Cc1c(NC(=O)c2ccco2)cccc1-c1nc2cccnc2s1 | active: 20 µM |  |
| Cc1ccc(NC(=O)CCS(=O)(=O)c2ccc(Br)cc2)nc1 | active: 15.8 µM |  |
| O=C(CCS(=O)(=O)c1cccc2nsnc12)Nc1ccc(F)cc1 | inconclusive [inhibitor, partial curve] |  |
| CCC(c1nnnn1Cc1ccco1)N(CCc1ccccc1)Cc1cc2cc(C)ccc2[nH]c1=O (stereo unspecified) | inconclusive [inhibitor, full curve, poor fit] |  |
| CCc1cc(C(=O)OC)c(NC(=O)CN2CCN(C(=O)C3CCCO3)CC2)s1 (stereo unspecified) | inconclusive [inhibitor, single point] |  |
| COC(=O)c1nc2n(n1)C(c1cc(OC)ccc1OC)C(C(=O)Nc1ccc(C)cc1C)=C(C)N2 (stereo unspecified) | inconclusive [inhibitor, single point] |  |
| Cc1ccc(CN(C(=O)COc2c(C)cccc2C)C2CCS(=O)(=O)C2)o1 (stereo unspecified) |  | inactive: -3.86% |
| c1ccc(CN(Cc2ccco2)C(c2ccncc2)c2nnnn2C2CCCC2)cc1 (stereo unspecified) | active: 22.4 µM |  |
| Clc1ccc(C2[C@H]3CN(Cc4cccnc4)[C@H](c4ccccc4)C34CC2(c2cccnc2)C4)cn1 (stereo partly specified) | inconclusive [inhibitor, partial curve] |  |
| COc1ccc(/C=C\C(=O)NC2CC(=O)N(c3ccccc3)C2)cc1OC (stereo unspecified) |  | inactive: 3.52% |
| COc1cc(/C=N/NC(=O)c2cc(C)n(-c3ccc(F)cc3)c2C)cc(OC)c1O | inconclusive [inhibitor, partial curve] |  |
| CC1CCN(C(=O)c2ccc(-c3ccccc3Cl)o2)CC1 | inconclusive [inhibitor, partial curve] |  |
| Fc1cccc(CSc2nc3ccncc3[nH]2)c1 |  | inactive: -0.727% |
| Cc1cccc(N=C2NC(=O)/C(=C/c3cccn3C)S2)c1C | inconclusive [inhibitor, partial curve] |  |
| CCN(CC)c1ccc(NC(=O)c2ccc(Br)o2)c(C)c1 |  | inactive: -16.2% |

| SMILES | Potency | activity change, negative = inhibition |
| --- | --- | --- |
| O=C1C=Cc2ccccc2/C1=C/c1[nH]c(=O)[nH]c1O | inconclusive [inhibitor, partial curve] |  |
| Cc1ccc2nc(N(Cc3cccnc3)C(=O)CCS(=O)(=O)c3ccccc3)sc2c1 | inconclusive [inhibitor, partial curve] |  |
| COC(=O)c1ccccc1NC(=O)Nc1nnc(N2CCC(C)CC2)s1 | inconclusive [inhibitor, single point] |  |
| O=c1cc(N2CCN(Cc3ccccc3)CC2)[nH]c(=O)n1-c1cccc(C(F)(F)F)c1 | inconclusive [inhibitor, partial curve] |  |
| O=[N+]([O-])c1ccc2c(c1)nc1n2CCN(C2CCCCC2)C1 | active: 35.5 µM |  |
| CC#CCc1cc2ccccc2c(=O)o1 | active: 3.98 µM |  |
| CO[C@@]1(NC(=O)C2SC(=C(C(N)=O)C(=O)O)S2)C(=O)N2C(C(=O)O)=C(CSc3nnnn3C)CS[C@@H]21 (stereo partly specified) | active: 39.8 µM |  |
| COc1ccc(NC(=O)c2noc(C(C)C)c2[N+](=O)[O-])cc1 | inconclusive [inhibitor, partial curve] |  |
| O=C(N/N=C/c1cccnc1)c1ccc([N+](=O)[O-])cc1Cl |  | inactive: -20.7% |
| c1ccc2c(c1)nnn2CNc1nccs1 | inconclusive [inhibitor, partial curve] |  |
| NC(=O)c1nnsc1Sc1c(C(N)=O)nnn1-c1cccc(N)c1 | inconclusive [inhibitor, partial curve] |  |
| O=C(O)CCc1ccc(-c2ccccc2)n1NC(=O)c1ccco1 | inconclusive [inhibitor, partial curve] |  |
| CCc1ccc(C(=O)Cn2ncc(Cl)c(Cl)c2=O)cc1 | inconclusive [inhibitor, single point] |  |
| CCS(=O)(=O)c1ccc2oc(Nc3ccc(C(C)(C)C)cc3)nc2c1 |  | inactive: 0.911% |
| Cc1ccccc1-n1c(-c2cccnc2)n[nH]c1=S |  | inactive: 16.2% |
| CN(CC1CCOCC1)C(=O)CC1C(=O)NCCN1Cc1ccc(Cl)c(F)c1 (stereo unspecified) | active: 28.2 µM |  |
| Cc1ccc(CN(C)C(=O)CN2C(=O)NC3(CCCC3)C2=O)o1 | inconclusive [inhibitor, partial curve] |  |
| CS(=O)(=O)NC1c2cccc3cccc(c23)C1Sc1nncn1/N=C/c1ccco1 (stereo unspecified) | active: 50.1 µM |  |
| Cc1ccc(CNCc2ccco2)cc1 | inconclusive [inhibitor, partial curve] |  |
| Cn1nccc1C(=O)c1ccc(Cl)cc1 | inconclusive [inhibitor, partial curve, poor fit] |  |
| Cc1cc(C)c(C)c(C(=O)COC(=O)CNC(=O)CNC(=O)c2ccco2)c1C | inconclusive [inhibitor, single point] |  |
| COC(=O)c1c(C)oc(C)c1S(=O)(=O)NCc1ccco1 | inconclusive [inhibitor, partial curve] |  |
| O=S(=O)(NCC(c1cccs1)S(=O)(=O)c1ccccc1)c1ccc(F)c(C(F)(F)F)c1 (stereo unspecified) | inconclusive [inhibitor, partial curve, poor fit] |  |
